# The other results are listed elsewhere or left out.
# B1: DC-Sign (Homo sapiens), Q9NNX6 (protein)
# chain: MSDSKEPRLQQLGLLEEEQLRGLGFRQTRGYKSLAGCLGHGPLVLQLLSFTLLAGLLVQVSKVPSSISQEQSRQDAIYQNLTQLKAAVGELSEKSKLQEIYQELTQLKAAVGELPEKSKLQEIYQELTRLKAAVGELPEKSKLQEIYQELTWLKAAVGELPEKSKMQEIYQELTRLKAAVGELPEKSKQQEIYQELTRLKAAVGELPEKSKQQEIYQELTRLKAAVGELPEKSKQQEIYQELTQLKAAVERLCHPCPWEWTFFQGNCYFMSNSQRNWHDSITACKEVGAQLVVIKSAEEQNFLQLQSSRSNRFTWMGLSDLNQEGTWQWVDGSPLLPSFKQYWNRGEPNNVGEEDCAEFSGNGWNDDKCNLAKFWICKKSAASCSRDEEQFLSPAPATPNPPPA
# Legend:
# Experiment in all cases: glycan array binding signal (z-score within array); higher = stronger binding
# Settings in all cases: glycan notation: IUPAC condensed, linker removed
# Gal(b1-3)GalNAc(b1-3)Gal = biological target: Gal(b1-3)GalNAc(b1-3)Gal
# Outline: (§1)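 The binding signal is a Z-score computed within each array. Data were drawn from 3228 arrays in the Consortium for Functional Glycomics database, restricted to those with a known protein sequence. Scores were averaged over arrays of the same protein sequence at different concentrations or buffers, and over linkers, and negative values can be taken as non-binding.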
# [1] = biological target: Gal(b1-3)GalNAc(b1-3)Gal(a1-4)Gal(b1-4)Glc
# Outline: as §1
# [2] = biological target: Gal(b1-3)GalNAc(b1-4)Gal(b1-4)Glc
# Outline: as §1
# [3] = biological target: Gal(b1-3)GalNAc(b1-4)[Neu5Ac(a2-3)]Gal(b1-4)Glc
# Outline: as §1
# Gal(b1-3)GlcNAc = biological target: Gal(b1-3)GlcNAc
# Outline: as §1
# [4] = biological target: Gal(b1-3)GlcNAc(a1-3)Gal(b1-4)GlcNAc
# Outline: as §1
# [5] = biological target: Gal(b1-3)GlcNAc(a1-6)Gal(b1-4)GlcNAc
# Outline: as §1
# Gal(b1-3)GlcNAc(b1-2)Man = biological target: Gal(b1-3)GlcNAc(b1-2)Man
# Outline: as §1
# [6] = biological target: Gal(b1-3)GlcNAc(b1-2)Man(a1-3)[Gal(b1-3)GlcNAc(b1-2)Man(a1-6)]Man(b1-4)GlcNAc(b1-4)GlcNAc
# Outline: as §1
# [7] = biological target: Gal(b1-3)GlcNAc(b1-2)Man(a1-3)[Gal(b1-3)GlcNAc(b1-2)Man(a1-6)]Man(b1-4)GlcNAc(b1-4)[Fuc(a1-6)]GlcNAc
# Outline: as §1
# [8] = biological target: Gal(b1-3)GlcNAc(b1-2)Man(a1-3)[GlcNAc(b1-4)][Gal(b1-3)GlcNAc(b1-2)Man(a1-6)]Man(b1-4)GlcNAc(b1-4)GlcNAc
# Outline: as §1
# [9] = biological target: Gal(b1-3)GlcNAc(b1-2)[Gal(b1-3)GlcNAc(b1-6)]Man(a1-6)[Gal(b1-3)GlcNAc(b1-2)Man(a1-3)]Man(b1-4)GlcNAc(b1-4)GlcNAc
# Outline: as §1
# [10] = biological target: Gal(b1-3)GlcNAc(b1-3)Gal(b1-3)GlcNAc
# Outline: as §1
# [11] = biological target: Gal(b1-3)GlcNAc(b1-3)Gal(b1-4)Glc
# Outline: as §1
# [12] = biological target: Gal(b1-3)GlcNAc(b1-3)Gal(b1-4)GlcNAc
# Outline: as §1
# [13] = biological target: Gal(b1-3)GlcNAc(b1-3)Gal(b1-4)GlcNAc(b1-2)Man(a1-3)[Gal(b1-3)GlcNAc(b1-3)Gal(b1-4)GlcNAc(b1-2)Man(a1-6)]Man(b1-4)GlcNAc(b1-4)GlcNAc
# Outline: as §1
# [14] = biological target: Gal(b1-3)GlcNAc(b1-3)Gal(b1-4)GlcNAc(b1-2)[Gal(b1-3)GlcNAc(b1-3)Gal(b1-4)GlcNAc(b1-6)]Man(a1-6)[Gal(b1-3)GlcNAc(b1-3)Gal(b1-4)GlcNAc(b1-2)Man(a1-3)]Man(b1-4)GlcNAc(b1-4)[Fuc(a1-6)]GlcNAc
# Outline: as §1
# [15] = biological target: Gal(b1-3)GlcNAc(b1-3)Gal(b1-4)GlcNAc(b1-3)Gal(b1-4)GlcNAc(b1-2)[Gal(b1-3)GlcNAc(b1-3)Gal(b1-4)GlcNAc(b1-3)Gal(b1-4)GlcNAc(b1-6)]Man(a1-6)[Gal(b1-3)GlcNAc(b1-3)Gal(b1-4)GlcNAc(b1-3)Gal(b1-4)GlcNAc(b1-2)Man(a1-3)]Man(b1-4)GlcNAc(b1-4)[Fuc(a1-6)]GlcNAc
# Outline: as §1
# [16] = biological target: Gal(b1-3)GlcNAc(b1-3)Gal(b1-4)GlcNAc(b1-6)[Gal(b1-3)GlcNAc(b1-3)]Gal(b1-4)Glc
# Outline: as §1
# [17] = biological target: Gal(b1-3)GlcNAc(b1-3)Gal(b1-4)[Fuc(a1-3)]GlcNAc
# Outline: as §1
# [18] = biological target: Gal(b1-3)GlcNAc(b1-3)Gal(b1-4)[Fuc(a1-3)]GlcNAc(b1-6)[Gal(b1-3)GlcNAc(b1-3)]Gal(b1-4)Glc
# Outline: as §1
# [19] = biological target: Gal(b1-3)GlcNAc(b1-3)GalNAc
# Outline: as §1
# [20] = biological target: Gal(b1-3)GlcNAc(b1-6)Gal(b1-4)GlcNAc
# Outline: as §1
# [21] = biological target: Gal(b1-3)GlcNAc(b1-6)GalNAc
# Outline: as §1
# [22] = biological target: Gal(b1-3)GlcNAc(b1-6)[Gal(b1-3)]GalNAc
# Outline: as §1
# Gal(b1-3)GlcNAc6S = biological target: Gal(b1-3)GlcNAc6S
# Outline: as §1
# [23] = biological target: Gal(b1-3)[Fuc(a1-4)]GlcNAc
# Outline: as §1
# [24] = biological target: Gal(b1-3)[Fuc(a1-4)]GlcNAc(b1-2)Man
# Outline: as §1
# [25] = biological target: Gal(b1-3)[Fuc(a1-4)]GlcNAc(b1-2)Man(a1-3)[Gal(b1-3)[Fuc(a1-4)]GlcNAc(b1-2)Man(a1-6)]Man(b1-4)GlcNAc(b1-4)[Fuc(a1-6)]GlcNAc
# Outline: as §1
# [26] = biological target: Gal(b1-3)[Fuc(a1-4)]GlcNAc(b1-3)Gal(b1-3)[Fuc(a1-4)]GlcNAc
# Outline: as §1
# [27] = biological target: Gal(b1-3)[Fuc(a1-4)]GlcNAc(b1-3)Gal(b1-4)[Fuc(a1-3)]GlcNAc
# Outline: as §1
# [28] = biological target: Gal(b1-3)[Fuc(a1-4)]GlcNAc(b1-6)GalNAc
# Outline: as §1
# [29] = biological target: Gal(b1-3)[GlcNAc(b1-6)]GalNAc
# Outline: as §1
# [30] = biological target: Gal(b1-3)[Neu5Ac(a2-6)]GalNAc
# Outline: as §1
# [31] = biological target: Gal(b1-3)[Neu5Ac(a2-6)]GlcNAc(b1-4)Gal(b1-4)Glc
# Outline: as §1
# [32] = biological target: Gal(b1-3)[Neu5Ac(b2-6)]GalNAc
# Outline: as §1
# Gal(b1-4)Gal = biological target: Gal(b1-4)Gal
# Outline: as §1
# [33] = biological target: Gal(b1-4)GalNAc(a1-3)[Fuc(a1-2)]Gal(b1-4)GlcNAc
# Outline: as §1
binder,measurement,setting,value
B1,glycan array binding signal (z-score),Gal(b1-3)GalNAc(b1-3)Gal,-0.208
same,glycan array binding signal (z-score),[1],-0.159
same,glycan array binding signal (z-score),[2],-0.09
same,glycan array binding signal (z-score),[3],-0.207
same,glycan array binding signal (z-score),Gal(b1-3)GlcNAc,-0.197
same,glycan array binding signal (z-score),[4],-0.14
same,glycan array binding signal (z-score),[5],-0.047
same,glycan array binding signal (z-score),Gal(b1-3)GlcNAc(b1-2)Man,-0.084
same,glycan array binding signal (z-score),[6],-0.086
same,glycan array binding signal (z-score),[7],-0.183
same,glycan array binding signal (z-score),[8],-0.036
same,glycan array binding signal (z-score),[9],-0.07
same,glycan array binding signal (z-score),[10],-0.156
same,glycan array binding signal (z-score),[11],-0.194
same,glycan array binding signal (z-score),[12],-0.188
same,glycan array binding signal (z-score),[13],-0.137
same,glycan array binding signal (z-score),[14],1.22
same,glycan array binding signal (z-score),[15],1.4
same,glycan array binding signal (z-score),[16],-0.179
same,glycan array binding signal (z-score),[17],-0.132
same,glycan array binding signal (z-score),[18],-0.152
same,glycan array binding signal (z-score),[19],-0.101
same,glycan array binding signal (z-score),[20],-0.151
same,glycan array binding signal (z-score),[21],-0.197
same,glycan array binding signal (z-score),[22],-0.087
same,glycan array binding signal (z-score),Gal(b1-3)GlcNAc6S,-0.19
same,glycan array binding signal (z-score),[23],1.01
same,glycan array binding signal (z-score),[24],-0.055
same,glycan array binding signal (z-score),[25],0.135
same,glycan array binding signal (z-score),[26],2.51
same,glycan array binding signal (z-score),[27],0.304
same,glycan array binding signal (z-score),[28],-0.117
same,glycan array binding signal (z-score),[29],-0.182
same,glycan array binding signal (z-score),[30],-0.18
same,glycan array binding signal (z-score),[31],-0.187
same,glycan array binding signal (z-score),[32],-0.112
same,glycan array binding signal (z-score),Gal(b1-4)Gal,-0.19
same,glycan array binding signal (z-score),[33],-0.178
